The other results are listed elsewhere or left out.
Test system: S. aureus RN4220
Experiment: growth inhibition call (relative growth <= 0.2)
Settings: 50 µM

Growth inhibition call, inactive:
C[C@@H]1CN([C@@H](C)CO)C(=O)c2cc(NC(=O)CCC(F)(F)F)ccc2O[C@@H](C)CCCCO[C@@H]1CN(C)C(=O)NC1CCCCC1, C[C@H]1CN([C@@H](C)CO)S(=O)(=O)c2ccc(C3=CCCC3)cc2O[C@H]1CN(C)S(=O)(=O)c1cn(C)cn1, Cc1noc(C)c1NC(=O)N(C)C[C@H]1Oc2ccc(NS(C)(=O)=O)cc2C(=O)N([C@@H](C)CO)C[C@H]1C, N=C(N)SCc1csc(N)n1, Cc1noc(C)c1S(=O)(=O)Nc1ccc2c(c1)C(=O)N([C@@H](C)CO)C[C@@H](C)[C@@H](CN(C)Cc1ccc(-c3ccccc3)cc1)O2, C=CC[C@@H](CC(=O)N[C@H](CO)Cc1ccccc1)C(=O)N[C@H](C)COC(=O)[C@@H](CC=C)CC(=O)OC(C)(C)C, CCCCN1C[C@H](O)[C@@H](O)[C@H](O)[C@H]1CO, Cc1noc(C)c1NC(=O)N(C)C[C@@H]1Oc2ncc(C#CCC(C)C)cc2C(=O)N([C@H](C)CO)C[C@@H]1C, C[C@@H]1CN([C@H](C)CO)C(=O)Cc2cc(NC(=O)Nc3ccc(C(F)(F)F)cc3)ccc2O[C@H]1CN(C)C(=O)Nc1ccc(C(F)(F)F)cc1, COc1ccc(NC(=O)N(C)C[C@H]2Oc3c(NC(=O)Nc4ccc(C(F)(F)F)cc4)cccc3C(=O)N([C@@H](C)CO)C[C@@H]2C)cc1, Cc1noc(C)c1NC(=O)N[C@H]1CC[C@@H](CC(=O)N2CCN(C)CC2)O[C@H]1CO, Cc1noc(C)c1NC(=O)N(C)C[C@H]1OCCCC[C@@H](C)Oc2ccc(NC(=O)Nc3ccc4c(c3)OCO4)cc2C(=O)N([C@@H](C)CO)C[C@H]1C, COc1ccccc1CNC(=O)C[C@H]1CC[C@H]2[C@@H](COC[C@@H](O)CN2C(=O)Nc2ccc(F)cc2)O1, C[C@@H]1CN([C@H](C)CO)C(=O)CCCn2nncc2CO[C@H]1CN(C)C(=O)Nc1ccc2c(c1)OCCO2, Cc1ccc(S(=O)(=O)N(C)C[C@H]2OCCCC[C@@H](C)Oc3ccc(NC(=O)Nc4c(C)noc4C)cc3C(=O)N([C@H](C)CO)C[C@H]2C)cc1, COc1ccc(S(=O)(=O)Nc2ccc3c(c2)[C@@H]2C[C@@H](CC(=O)NCC4CC4)O[C@H](CO)[C@@H]2O3)cc1, CN(C)CCOc1c(Br)cc(/C=C/C(=O)NCCCOc2c(Br)cc(CCN(C)C)cc2Br)cc1Br, CN1CCN(C(=O)C[C@@H]2CC[C@H]3[C@@H](COc4ccc(NC(=O)c5cccs5)cc4C(=O)N3C)O2)CC1, C[C@@H]1CN([C@H](C)CO)C(=O)c2cc(NC(=O)Nc3ccccc3)ccc2O[C@@H]1CN(C)Cc1ccc(Oc2ccccc2)cc1, C[C@@H]1CN([C@H](C)CO)C(=O)c2cc(NC(=O)CCC(F)(F)F)ccc2O[C@@H](C)CCCCO[C@@H]1CN(C)Cc1ccc(C(F)(F)F)cc1, CNC(=O)c1c(I)c(C(=O)NCC(=O)Nc2c(I)c(C(=O)O)c(I)c(C(=O)NCCO)c2I)c(I)c(N(C)C(C)=O)c1I, C[C@@H]1CN([C@H](C)CO)C(=O)c2cccc(NC(=O)Nc3ccccc3)c2O[C@H]1CN(C)Cc1ccc(C(=O)Nc2ccccc2N)cc1, NCc1ccc(-c2ccccc2O)cc1, C[C@H](CO)N1C[C@H](C)[C@@H](CN(C)Cc2ccc(Oc3ccccc3)cc2)Oc2ccc(NC(=O)C3CC3)cc2C1=O, Cc1occc(=O)c1O, CCN(CC)c1ncc(C#N)c(N)n1, CN1CC(O)C2=CC(=NNC(N)=O)C(=O)C=C21 (stereo not given), Nc1ccccc1C(=O)N[C@H]1CCCCNC1=O, C[C@H]1CN([C@@H](C)CO)C(=O)c2cc(NC(=O)C3CCCCC3)ccc2O[C@@H]1CN(C)Cc1ccc(Cl)c(Cl)c1, COc1ccc(S(=O)(=O)Nc2ccc3c(c2)C(=O)N([C@H](C)CO)C[C@@H](C)[C@H](CN(C)Cc2ccc(Oc4ccccc4)cc2)O3)cc1, Cc1noc(C)c1NC(=O)Nc1ccc2c(c1)CC(=O)N([C@@H](C)CO)C[C@@H](C)[C@@H](CN(C)C(=O)Nc1ccc(C(F)(F)F)cc1)O2, COc1ccc(NC(=O)Nc2cccc3c2O[C@H](CN(C)S(=O)(=O)c2cn(C)cn2)[C@@H](C)CN([C@H](C)CO)C3=O)cc1, O=C(C[C@H]1CC[C@@H]2[C@H](COC[C@@H](O)CN2S(=O)(=O)c2cccc(Cl)c2)O1)NCCCN1CCOCC1, CC[C@H]1OC[C@@H]2CN(C(=O)CN(C)C)CC[C@H]21, C[C@@H]1CN([C@H](C)CO)C(=O)c2cccc(NC(=O)c3cnccn3)c2O[C@@H]1CN(C)C(=O)Nc1ccc(F)cc1, O=c1ccn([C@@H]2O[C@H](COP(=O)(O)OP(=O)(O)OP(=O)(O)OP(=O)(O)OC[C@H]3O[C@@H](n4ccc(=O)[nH]c4=O)[C@H](O)[C@@H]3O)[C@@H](O)[C@H]2O)c(=O)[nH]1, O=C(N[C@@H]1CC[C@H](CCn2cc(C3(O)CCCC3)nn2)O[C@@H]1CO)C1CCOCC1, NCc1cccc(N2CCCC2)c1, C[C@H](CO)N1C[C@H](C)[C@@H](CN(C)C(=O)NC2CCCC2)Oc2cc(Br)ccc2S1(=O)=O, Cc1cc(NC(=O)C2=C(O)c3ccccc3S(=O)(=O)N2C)no1

Reference: the antibiotic and cytotoxicity screens of Wong et al. (2023)
